The whole screen tested about 310,000 compounds, of which about 2,200 (0.71%) showed an effect of 50% or more. Effects have a minus sign here. This is one part of the list.
molecular target: human ether-à-go-go-related gene (hERG) potassium channel (human, UniProt Q12809); assay: primary screen, population patch clamp on CHO cells stably expressing hERG
Sequence (Q12809 whole entry, looked up): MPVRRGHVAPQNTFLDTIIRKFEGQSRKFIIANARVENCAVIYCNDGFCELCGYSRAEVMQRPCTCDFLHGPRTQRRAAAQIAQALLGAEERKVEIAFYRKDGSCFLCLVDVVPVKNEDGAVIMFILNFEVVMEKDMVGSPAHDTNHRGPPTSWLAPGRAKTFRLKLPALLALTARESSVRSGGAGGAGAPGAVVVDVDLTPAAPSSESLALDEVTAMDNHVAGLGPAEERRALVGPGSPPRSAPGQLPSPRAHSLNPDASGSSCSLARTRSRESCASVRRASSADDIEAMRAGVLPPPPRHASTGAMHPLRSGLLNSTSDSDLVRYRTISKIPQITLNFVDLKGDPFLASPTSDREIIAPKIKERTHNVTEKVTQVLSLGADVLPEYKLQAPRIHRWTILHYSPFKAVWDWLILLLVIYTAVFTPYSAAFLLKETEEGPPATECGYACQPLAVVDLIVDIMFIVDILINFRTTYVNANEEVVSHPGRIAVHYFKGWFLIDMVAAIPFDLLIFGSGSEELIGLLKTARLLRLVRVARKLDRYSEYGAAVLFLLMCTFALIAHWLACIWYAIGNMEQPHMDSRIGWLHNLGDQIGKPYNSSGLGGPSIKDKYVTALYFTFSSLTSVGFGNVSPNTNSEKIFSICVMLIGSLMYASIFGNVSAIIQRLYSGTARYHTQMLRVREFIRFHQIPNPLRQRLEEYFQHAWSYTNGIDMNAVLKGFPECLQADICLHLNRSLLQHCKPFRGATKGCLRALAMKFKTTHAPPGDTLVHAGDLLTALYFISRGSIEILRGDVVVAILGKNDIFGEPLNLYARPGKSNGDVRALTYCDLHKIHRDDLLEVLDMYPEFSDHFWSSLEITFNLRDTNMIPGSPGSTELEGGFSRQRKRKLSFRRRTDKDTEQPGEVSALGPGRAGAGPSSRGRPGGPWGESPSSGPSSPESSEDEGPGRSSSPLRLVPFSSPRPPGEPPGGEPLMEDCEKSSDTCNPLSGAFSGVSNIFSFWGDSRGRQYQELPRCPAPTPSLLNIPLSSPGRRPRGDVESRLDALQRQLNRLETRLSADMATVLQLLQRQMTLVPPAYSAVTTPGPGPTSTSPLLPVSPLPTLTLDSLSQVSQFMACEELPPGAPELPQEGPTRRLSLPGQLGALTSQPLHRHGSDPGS

Compound | hERG current change (%, negative = inhibition) at 1uM [%]
O=S(=O)(c1cccs1)N1CCC(Cc2ccccc2)CC1 | 4.04
CCc1nc(SCC(=O)NCc2ccc(F)cc2)c2c(=O)n(C)c(=O)n(C)c2n1 | 11.2
CC(=O)OCC(=O)Nc1ccccc1C | 12.6
Cc1ccc(OCC(=O)Nc2ccc(N3CCCC3)cc2)cc1C | 12.1
O=C(Nc1c(F)cc(F)cc1Br)c1cc(-c2ccc(O)cc2)on1 | 8.3
COc1ccc(C(=O)NCC(c2ccc(F)cc2)N2CCOCC2)cc1S(=O)(=O)N1CCCC1 (centres unmarked) | 2.4
Brc1ccc2c(c1)OCCOCCOc1cc(Br)ccc1OCCOCCOCCO2 | -6.77
CSc1ncccc1C(=O)N1CCCC(C(=O)c2ccc3ccccc3c2)C1 (centres unmarked) | 3.33
CCC1CCCCN1C(=O)CSc1nc2ccsc2c(=O)n1Cc1ccccc1 (centres unmarked) | -8.37
O=C(COc1ccccc1[N+](=O)[O-])N/N=C/c1ccc[nH]1 | 14.3
COc1ccc(Nc2oc(COc3ccccc3F)nc2C#N)cc1 | 6.02
Cc1ccc(CN2CC(C(=O)Nc3ccc(C)cn3)CC2=O)cc1 (centres unmarked) | -4.82
S=C(NCc1ccncc1)Nc1ccc(Br)cc1Cl | 1.24
COc1cccc(CNC(=S)Nc2cc(C)ccc2C)c1 | 18.9
Cc1cc(C)cc(NC(=O)C(=O)NCC2CCCO2)c1 (centres unmarked) | -9.95
Cc1ccccc1OCC(O)Cn1nnc2ccccc21 (centres unmarked) | 16.4
O=C(CC(=O)Nc1ccccc1F)Nc1ccccc1F | 12.9
CC(C)(C)c1ccc(-c2nc(C#N)c(NCc3cccnc3)o2)cc1 | 14.2
COc1cc(C(=O)NC(C)C2CC3CCC2C3)cc(OC)c1OC (centres unmarked) | 11.1

Compound | hERG current change (%, negative = inhibition) at 1uM [%]
C#C[C@]1(O)CC[C@H]2[C@@H]3CCC4=Cc5oncc5C[C@]4(C)[C@H]3CC[C@@]21C | 11.2
COc1ccccc1C(CNC(=O)CSc1ccc2ccccc2c1)N(C)C (centres unmarked) | -8.51
CCN(CC)CCNC(=O)CNC(=S)N(CCCN1CCOCC1)Cc1cccs1 | 15.4
CN1CCC(=NNc2ccc(S(=O)(=O)N3CCOCC3)cc2[N+](=O)[O-])CC1 | -1.7
CN1CCN(c2ccc([N+](=O)[O-])cc2C(=O)c2ccc(Cl)cc2)CC1 | -24.3
Brc1ccc(-c2cnco2)cc1 | 9.53
COc1ccc(NS(=O)(=O)c2cccc(C(=O)N/N=C(\C)c3ccncc3)c2)cc1 | 6.33
O=C(NCc1ccc2c(c1)OCO2)c1cccc2c1C(=O)N(C1CCCCC1)C2 | 11.3
CCc1cc2c(N[C@@H](C)C(=O)O)ncnc2s1 | 13
Cc1ccc(NC(=O)CSc2n[nH]c(-c3ccncc3)n2)cc1 | -2.68
COC(=O)c1ccc(N2CCN(C(C)=O)CC2)c(NC(=O)c2cccnc2)c1 | 6.85
CCN(CC)S(=O)(=O)c1ccc(NS(=O)(=O)c2cccs2)cc1 | -8.97
COCC1CCCN(Cc2cn(-c3ccccc3)nc2-c2ccc3c(c2)OCO3)C1 (centres unmarked) | -20.2
CCOC(=O)n1c(O)c(N=NC(N)=S)c2cc(C)ccc21 | 11.7
CCNC(=O)COc1ccc(F)cc1C(=O)c1cnn(-c2ccccc2)c1 | 0.95
Cc1ccc(C)c(S(=O)(=O)Nc2ccc(C(=O)N3CC(C)OC(C)C3)cc2)c1 (centres unmarked) | 9.09
CCC1CCCCN1Cc1nc2c(c(=O)n(C)c(=O)n2C)n1CC(C)C (centres unmarked) | 6.92
CN(C)C(=O)c1c2c(nc3ccccc13)-c1ccccc1CC2 | -0.246
O=C1CSC(=Nc2ccc(O)cc2)N1c1ccc(O)cc1 | 9.51

Source: paper PMC4336329 (PLoS ONE, 2015)
